# In PubChem BioAssay AID463173 (ICCB-Longwood Screening Facility, Harvard Medical School, 2010):
# About 1,700 (3.3%) of roughly 52,000 compounds were called active. No stated cut-off is given here; in the data, active means survival mostly below about 52% (no sharp cut-off); inactive means mostly above about 56%. This is one part of the list.
# System: Wild type
# Assay: growth inhibition of S. aureus wild type versus tarO mutant, primary screen, teichoic acid synthesis inhibitors, RN4220, OD600 (AID 463173)
# Conditions: S. aureus RN4220 wild type/DeltatarO growth, OD600, 18 h, active compounds read low, screened at 18.75 µg/mL (by protocol)
row,SMILES,survival
1,Cc1ccccc1Cn1c(SCc2ccc(C(=O)N3CCCCC3)cc2)nc2ccncc21,inactive: 90%
2,CCn1c(C(=O)Nc2ccccc2C(=O)OC)cc2sc(Cl)cc21,inactive: 43%
3,COC(=O)c1c(NC(=O)CCCOc2ccc(C)cc2)sc2c1CCCC2,active: 3%
4,COc1cc(NC(=O)CCNC(=O)Cn2ccc3ccccc3c2=O)cc(OC)c1OC,inactive: 69%
5,COc1ccc(CCNC(=O)c2cc(Nc3ccccc3)nc3ccccc23)cc1OC,inactive: 152%
6,O=C1CCc2cc(S(=O)(=O)NCc3ccccc3)cc3c2N1CC3,inactive: 72%
7,Cc1ccc(NC(=O)Cn2c(=O)n(Cc3ccc(F)cc3)c(=O)c3cccnc32)cc1C,inactive: 82%
8,O=C(Nc1ccc(S(=O)(=O)N(Cc2ccccc2)c2ccccc2)cc1)c1ccccc1F,inactive: 82%
9,CCCCSc1ncc(C(=O)OCC)c(N)n1,inactive: 100%
10,Cc1nc2c(c(C)nn2-c2ccccc2)c(C)c1CCC(=O)Nc1ccccc1,inactive: 87%
11,COC(=O)c1ccccc1NC(=O)CCCn1c(C)c2cnn(-c3ccccc3)c(=O)c2c1C,inactive: 82%
12,CCCn1ccc2c(OCC(=O)Nc3ccccc3C(=O)OCC)cccc2c1=O,inactive: 75%
13,O=C(CCCCn1c(=O)c2ccccc2n(Cc2ccc(F)cc2Cl)c1=O)NCCc1ccc(Cl)cc1,inactive: 99%
14,N=c1c(C(N)=O)cc2c(=O)n3ccccc3nc2n1Cc1ccccc1,inactive: 99%
15,O=C(Nc1ccccc1C(=O)NCc1ccccc1)c1ccco1,inactive: 112%
16,CCOc1ccc(CCNC(=O)C2Cc3ccccc3N2C(=O)CC)cc1 (stereo unspecified),inactive: 84%
17,CCOC(=O)c1ccc(Nc2c(-c3ccc(OC)cc3)nc3nc[nH]n23)cc1,inactive: 79%
18,COc1ccc(CNC(=O)CC(C)CC2=NS(=O)(=O)c3ccccc3N2)cc1 (stereo unspecified),inactive: 124%
19,Cc1ccccc1Cn1c(=O)n(Cc2ccco2)c(=O)c2sc3ccccc3c21,inactive: 83%

row,SMILES,survival
1,CCOc1ccc(S(=O)(=O)Nc2ccc3c(c2)CCCN3C(=O)c2cccs2)cc1,inactive: 71%
2,COc1ccccc1CNC(=O)Cc1c(C)c2cc3c(C)coc3c(C)c2oc1=O,inactive: 84%
3,CCOC(=O)c1cc2c(=O)n3ccccc3nc2n(CCCOC)c1=NC(=O)c1c(-c2c(F)cccc2Cl)noc1C,inactive: 70%
4,CCC(=O)N1CCc2cc(CNC(=O)Nc3cc(OC)c(OC)c(OC)c3)ccc21,inactive: 127%
5,CCN(CC)C(=O)C1=C(C)Nc2nc3ccccc3n2C1c1ccccc1F (stereo unspecified),inactive: 143%
6,CC1Cc2ccccc2N1C(=O)Cn1nc(-c2nccc3ccccc23)oc1=O (stereo unspecified),inactive: 97%
7,COc1ccc(Cl)cc1NC(=O)Cn1c(=O)n(-c2ccc(C)cc2)c(=O)c2ccc(C(=O)NCc3ccccc3Cl)cc21,inactive: 84%
8,O=C(Cc1ccc(NC(=O)N2CCCCc3ccccc32)cc1)NCc1cccc(Br)c1,inactive: 77%
9,CC(=O)Nc1ccc2c(c1)S(=O)(=O)c1cc(NC(C)=O)ccc1-2,inactive: 104%
10,Cc1cccc(N2CCN(C(=O)Cn3c(C)c4cnn(-c5ccccc5)c(=O)c4c3C)CC2)c1C,inactive: 89%
11,Cc1nnc(SCc2cc(=O)c3cc(F)ccc3[nH]2)n1C,inactive: 70%
12,CCCCn1c(SCc2ccccc2C)nc2ccsc2c1=O,inactive: 136%
13,COc1ccc(CNC(=O)C(=O)NCC(c2ccco2)S(=O)(=O)c2cccs2)cc1 (stereo unspecified),inactive: 47%
14,C=C(C)Cn1c(SCC(=O)c2ccc(Br)cc2)nc2sc3c(c2c1=O)CCCC3,inactive: 76%
15,CC1=C(C#N)C(NC(=O)c2ccccc2)(C(F)(F)F)C(=O)N1 (stereo unspecified),inactive: 85%
16,Cc1ccc(NC(=O)c2ccc3c(O)c(S(=O)(=O)c4ccc(Cl)cc4)c(=O)[nH]c3c2)cc1,inactive: 119%
17,CCOC(=O)C1CCCN(C(=O)Cn2ncc3c(C)n(Cc4ccc(Cl)cc4)c(C)c3c2=O)C1 (stereo unspecified),inactive: 87%
18,Cc1ccc(NS(=O)(=O)c2ccc3c(c2)CCN3C(=O)C2CC2)c(C)c1,inactive: 63%
19,Cc1ccc(S(=O)(=O)c2nc(-c3cccs3)oc2SCc2ccc(F)cc2)cc1,inactive: 68%

row,SMILES,survival
1,CC(C)c1ccccc1NC(=O)C(Cc1c[nH]c2ccccc12)NC(=O)OC(C)(C)C (stereo unspecified),inactive: 116%
2,COCCn1c(CNC(=O)c2cccc(C)c2)nc2cccnc21,inactive: 78%
3,COCCNC(=O)C1CCN(Cc2cc3ccccc3n2Cc2ccc(C)cc2)CC1,inactive: 73%
4,COc1ccccc1NC(=O)C1=C(C)Nc2nc(SCc3ccccc3)nn2C1c1cccc(O)c1 (stereo unspecified),inactive: 69%
5,O=C(CSCc1ccccc1)Nc1nccs1,inactive: 101%
6,COc1ccc(OC)c(NS(=O)(=O)c2ccc(-n3cccn3)cc2)c1,inactive: 78%
7,O=C(COc1ccc(F)cc1)Nc1nnc(S(=O)(=O)N2CCCC2)s1,inactive: 73%
8,COc1ccc(NC(=O)c2nnn(Cc3nc(-c4cc(OC)c(OC)c(OC)c4)oc3C)c2C)cc1Cl,inactive: 155%
9,COCCCNC(=O)Cn1c(=O)n(-c2ccc(C)c(C)c2)c(=O)c2c3c(sc21)CCCCC3,inactive: 99%
10,CCCCNC(=O)C(CC)Sc1nc2ccccc2c(=O)n1Cc1ccco1 (stereo unspecified),inactive: 70%
11,CCC(C)n1c(=O)c2sccc2n2c(CCCC(=O)NCc3ccccc3Cl)nnc12 (stereo unspecified),inactive: 102%
12,COc1cc(NC(=O)C2CCN(S(=O)(=O)Cc3ccccc3)CC2)c(OC)cc1Cl,inactive: 84%
13,COCCNC(=O)c1sc2ncccc2c1-n1c(C)ccc1C,inactive: 88%
14,Cc1cc(C)n2nc(CNC(=O)c3c(F)cccc3F)nc2n1,inactive: 77%
15,Cc1cccc(N(C)S(=O)(=O)c2nnc(NC(=O)c3cccs3)s2)c1,inactive: 38%
16,Cc1ccc(C(=O)c2sc(Nc3ccccc3)c(S(=O)(=O)c3ccccc3)c2N)c(C)c1,inactive: 127%
17,CCOC(=O)c1cccc(NC(=O)Cn2c(=O)c3cccn3c3ccccc32)c1,inactive: 121%
18,CC(C)(C)OC(=O)N1CCC(c2c(C(=O)N3CCN(c4ccccn4)CC3)cnn2-c2ccc(F)cc2)CC1,inactive: 72%
